Positions count from the first letter of the chain named. Names and notes keep the numbering of the source. Results are given in words; binding and its absence hold for the method and conditions named. Some entries that bind do so weakly or less than the wild type. For part of these data: Sequences can lack the tags named with a protein.
T1: biotinylated MIP (…-K-biotin)
T1 sequence (peptide, biotin on the added C-terminal K): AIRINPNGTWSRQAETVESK

T2: GST-MLK3 SH3(43–104) (human, UniProt Q16584 43-104)
T2 construct: also called GST-MLK3 SH3-WT; SH3 WT
T2 sequence (looked up): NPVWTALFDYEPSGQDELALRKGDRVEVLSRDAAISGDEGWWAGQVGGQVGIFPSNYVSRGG

B1: MLK3 SH3(41–105)-MIP(1–13)W10A fusion protein (protein, UniProt Q16584 41-105)
chain: YANPVWTALFDYEPSGQDELALRKGDRVEVLSRDAAISGDEGWWAGQVGGQVGIFPSNYVSRGGGAIRINPNGTASRQ
B2: MLK3 SH3(41–105)-MIP(1–13)R12A fusion protein (protein, UniProt Q16584 41-105)
chain: B1 chain with A75W, R77A
B3: GST-MLK2 SH3 (domain or fragment, UniProt Q02779 16-81)
chain: PAGPVWTAVFDYEAAGDEELTLRRGDRVQVLSQDCAVSGDEGWWTGQLPSGRVGVFPSNYVAPGAP
B4: phage-displayed MIP, mutation of Pro-6 to Ala (peptide)
peptide: AIRINANGTWSRQAETVES
B5: phage-displayed MIP, alanine replacement at Gln-13 (peptide)
peptide: AIRINPNGTWSRAAETVES
B6: phage-displayed MIP, Ala-14 replaced with Val (peptide)
peptide: AIRINPNGTWSRQVETVES
B7: phage-displayed MIP, alanine replacement at Glu-15 (peptide)
peptide: AIRINPNGTWSRQAATVES
B8: phage-displayed MIP, alanine replacement at Thr-16 (peptide)
peptide: AIRINPNGTWSRQAEAVES
B9: phage-displayed MIP, alanine replacement at Val-17 (peptide)
peptide: AIRINPNGTWSRQAETAES
B10: phage-displayed MIP, alanine replacement at Glu-18 (peptide)
peptide: AIRINPNGTWSRQAETVAS
B11: phage-displayed MIP, alanine replacement at Ser-19 (peptide)
peptide: AIRINPNGTWSRQAETVEA
B12: phage-displayed truncated version of MIP (ΔA1) (peptide)
peptide: IRINPNGTWSRQAETVES

Molecular target: MLK3 SH3(41–105)-MIP(1–13)W10A fusion protein (human) (UniProt Q16584)
Test: SEC; both purified

**Q.** For B1, which binding is on record?
**A.** no binding

Molecular target: MLK3 SH3(41–105)-MIP(1–13)R12A fusion protein (human) (UniProt Q16584)
Test: SEC; both purified

**Q.** Which binding does the source give for B2 here?
**A.** no binding

Molecular target: T1, biotinylated MIP (…-K-biotin)
Test: ELISA; both purified

**Q.** With B3 as the binder, how does the binding read?
**A.** no binding (tested: 0.15 μM)

Molecular target: T2, GST-MLK3 SH3(43–104)
Test: ELISA; only the target purified

**Q.** B4 was tested. Which binding did it give?
**A.** binds

**Q.** Which binding does the source give for B5 here?
**A.** binds

**Q.** How did the binding turn out when B6 was run?
**A.** binds

**Q.** For B7, which binding is on record?
**A.** binds

**Q.** B8 was tested. Which binding did it give?
**A.** binds

**Q.** With B9 as the binder, how does the binding read?
**A.** binds

**Q.** B10 was tested. Which binding did it give?
**A.** binds

**Q.** With B11 as the binder, how does the binding read?
**A.** binds

**Q.** For B12, which binding is on record?
**A.** no binding
